US20250059278A1 (SICHUAN HUIYU PHARMACEUTICAL, published 2025)

B1: CD3-MSLN bispecific antibody B30 (bispecific antibody, human IgG1, lambda)
heavy: EVQLVESGGGLVQPGGSLRLSCAASGFTFNTYAMNWVRQAPGKGLEWVARIRSKYNNYATYYADSVKDRFTISRDDSKSILYLQMNSLKTEDTAMYYCVRHSNFGNGYVSWFAYWGQGTLVTVSSASTKGPSVFPLAPSSKSTSGGTAALGCLVKDYFPEPVTVSWNSGALTSGVHTFPAVLQSSGLYSLSSVVTVPSSSLGTQTYICNVNHKPSNTKVDKKV[letters of human IgG1 Fc with changes omitted]GGGGSGGGGSEVQLVESGGGLVQAGESLRLSCAVSGNIGSIRHMGWHRQDPGKERELVATITTVGTTYYANFVKGRFTISRDNAKNTVYLQMNSLKPEDTGVYYCRATAHPTDYWGQGTQVTVSS
light: [letters of about 100 residues omitted][letters of about 100 residues omitted]
notes: [VH30]-[CH]-[L]-[3C6 VHH] with [VL-1]-[CL]
B2: CD3-MSLN bispecific antibody B31 (bispecific antibody, human IgG1, lambda)
heavy: EVQLVESGGGLVQPGGSLRLSCAASGFTFNTYAMNWVRQAPGKGLEWVARIRSKYNNYATYYADSVKGRFTISRDDSKSILYLQMNNLKTEDTAVYYCVRHSNFGNSYVSWFEYWGQGTLVTVSSASTKGPSVFPLAPSSKSTSGGTAALGCLVKDYFPEPVTVSWNSGALTSGVHTFPAVLQSSGLYSLSSVVTVPSSSLGTQTYICNVNHKPSNTKVDKKV[letters of human IgG1 Fc with changes omitted]GGGGSGGGGSEVQLVESGGGLVQAGESLRLSCAVSGNIGSIRHMGWHRQDPGKERELVATITTVGTTYYANFVKGRFTISRDNAKNTVYLQMNSLKPEDTGVYYCRATAHPTDYWGQGTQVTVSS
light: [letters of about 100 residues omitted][letters of about 100 residues omitted]
notes: [VH31]-[CH]-[L]-[3C6 VHH] with [VL-1]-[CL]
B3: CD3-MSLN bispecific antibody B32 (bispecific antibody, human IgG1, lambda)
heavy: EVQLVESGGGLVQPGGSLRLSCAASGFTFNTYAMNWVRQAPGKGLEWVARIRSKYNNYATYYADSVKGRFTISRDDSKSSLYLQMNSLKTEDTAVYYCVRHSNFGNSRVSWFAYWGQGTLVTVSSASTKGPSVFPLAPSSKSTSGGTAALGCLVKDYFPEPVTVSWNSGALTSGVHTFPAVLQSSGLYSLSSVVTVPSSSLGTQTYICNVNHKPSNTKVDKKV[letters of human IgG1 Fc with changes omitted]GGGGSGGGGSEVQLVESGGGLVQAGESLRLSCAVSGNIGSIRHMGWHRQDPGKERELVATITTVGTTYYANFVKGRFTISRDNAKNTVYLQMNSLKPEDTGVYYCRATAHPTDYWGQGTQVTVSS
light: [letters of about 100 residues omitted][letters of about 100 residues omitted]
notes: [VH32]-[CH]-[L]-[3C6 VHH] with [VL-1]-[CL]
B4: CD3-MSLN bispecific antibody B33 (bispecific antibody, human IgG1, lambda)
heavy: EVQLVESGGGLVQPGGSLRLSCAASGFTFNTYAMNWVRQAPGKGLEWVARIRSKYNNYATYYADSVKGRFTISRDDSKSSLYLQMNSLKTEDTAVYYCVRHGNFGNNYVSWFASWGQGTLVTVSSASTKGPSVFPLAPSSKSTSGGTAALGCLVKDYFPEPVTVSWNSGALTSGVHTFPAVLQSSGLYSLSSVVTVPSSSLGTQTYICNVNHKPSNTKVDKKV[letters of human IgG1 Fc with changes omitted]GGGGSGGGGSEVQLVESGGGLVQAGESLRLSCAVSGNIGSIRHMGWHRQDPGKERELVATITTVGTTYYANFVKGRFTISRDNAKNTVYLQMNSLKPEDTGVYYCRATAHPTDYWGQGTQVTVSS
light: [letters of about 100 residues omitted][letters of about 100 residues omitted]
notes: [VH33]-[CH]-[L]-[3C6 VHH] with [VL-1]-[CL]
B5: CD3-MSLN bispecific antibody B34 (bispecific antibody, human IgG1, lambda)
heavy: EVQLVESGGGLVQPGGSLRLSCAASGFTFNTYAMNWVRQAPGKGLEWVARIRSKYNNYATYYADSVKGRFTISRDDSKSSLYLQMNNLKTEDTAVYYCVRHGNFKQSYVSWFAYWGQGTLVTVSSASTKGPSVFPLAPSSKSTSGGTAALGCLVKDYFPEPVTVSWNSGALTSGVHTFPAVLQSSGLYSLSSVVTVPSSSLGTQTYICNVNHKPSNTKVDKKV[letters of human IgG1 Fc with changes omitted]GGGGSGGGGSEVQLVESGGGLVQAGESLRLSCAVSGNIGSIRHMGWHRQDPGKERELVATITTVGTTYYANFVKGRFTISRDNAKNTVYLQMNSLKPEDTGVYYCRATAHPTDYWGQGTQVTVSS
light: [letters of about 100 residues omitted][letters of about 100 residues omitted]
notes: [VH34]-[CH]-[L]-[3C6 VHH] with [VL-1]-[CL]
B6: CD3-MSLN bispecific antibody B35 (bispecific antibody, human IgG1, lambda)
heavy: EVQLVESGGGLVQPGGSLRLSCAASGFTFNTYAMNWVRQAPGKGLEWVARIRSKYNNYATYYADSVKDRFTISRDDSKSSLYLQMNNLKTEDTAVYYCVRHSNFGNSYVSWWAYWGQGTLVTVSSASTKGPSVFPLAPSSKSTSGGTAALGCLVKDYFPEPVTVSWNSGALTSGVHTFPAVLQSSGLYSLSSVVTVPSSSLGTQTYICNVNHKPSNTKVDKKV[letters of human IgG1 Fc with changes omitted]GGGGSGGGGSEVQLVESGGGLVQAGESLRLSCAVSGNIGSIRHMGWHRQDPGKERELVATITTVGTTYYANFVKGRFTISRDNAKNTVYLQMNSLKPEDTGVYYCRATAHPTDYWGQGTQVTVSS
light: [letters of about 100 residues omitted][letters of about 100 residues omitted]
notes: [VH35]-[CH]-[L]-[3C6 VHH] with [VL-1]-[CL]

Key:
[1] = target: T1, Human CD3εγ recombinant antigen (acrobiosystems, Cat. No. CDG-H52W5) (human, UniProt P07766 23-126; P09693 23-116); test: SPR chip (Carterra), antibody captured, antigen in flow
T1 construct: Bought recombinant protein

[2] = target: T2, Monkey CD3 on cynomolgus HSC-F cells (cynomolgus monkey, UniProt Q95LI5 22-198; Q95LI7 23-181; Q95LI8 22-171); test: flow cytometry on HSC-F cells
T2 construct: whole, on cells; also called Monkey CD3-expressing cynomolgus HSC-F cells; cynomolgus monkey CD3-expressing HSC-F cells
T2 sequence (Q95LI5 22-198, chain 1 of 3): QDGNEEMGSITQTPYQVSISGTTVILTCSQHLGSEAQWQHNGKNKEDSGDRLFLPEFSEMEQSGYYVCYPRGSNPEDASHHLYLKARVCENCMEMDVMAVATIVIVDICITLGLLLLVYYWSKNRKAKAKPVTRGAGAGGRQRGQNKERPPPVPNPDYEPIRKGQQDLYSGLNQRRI
T2 sequence (Q95LI7 23-181, chain 2 of 3, further chain): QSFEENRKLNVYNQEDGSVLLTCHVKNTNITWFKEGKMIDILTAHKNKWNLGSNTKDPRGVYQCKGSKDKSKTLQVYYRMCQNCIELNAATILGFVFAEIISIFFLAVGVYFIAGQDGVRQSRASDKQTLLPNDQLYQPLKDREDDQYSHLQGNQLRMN
T2 sequence (Q95LI8 22-171, chain 3 of 3, further chain): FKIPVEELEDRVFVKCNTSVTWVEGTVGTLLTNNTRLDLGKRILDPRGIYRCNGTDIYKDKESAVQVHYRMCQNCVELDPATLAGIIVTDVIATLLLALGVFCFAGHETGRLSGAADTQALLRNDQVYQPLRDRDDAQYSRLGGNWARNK

[3] = target: T3, Human CD3 on Jurkat cells (human, UniProt P07766; P09693; P04234); test: flow cytometry on Jurkat cells
T3 construct: whole, on cells; also called Human CD3-expressing Jurkat cells; Jurkat (naturally expressing human CD3)

[4] = target: T3, Human CD3 on Jurkat cells; test: cell-based or functional assay
T3 sequence (P07766 23-207, chain 1 of 3): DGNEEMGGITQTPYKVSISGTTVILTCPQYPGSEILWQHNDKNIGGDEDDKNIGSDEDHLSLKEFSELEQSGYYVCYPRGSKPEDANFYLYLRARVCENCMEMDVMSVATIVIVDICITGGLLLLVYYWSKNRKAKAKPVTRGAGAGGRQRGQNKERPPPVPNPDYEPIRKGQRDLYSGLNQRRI
T3 sequence (P09693 23-182, chain 2 of 3, further chain): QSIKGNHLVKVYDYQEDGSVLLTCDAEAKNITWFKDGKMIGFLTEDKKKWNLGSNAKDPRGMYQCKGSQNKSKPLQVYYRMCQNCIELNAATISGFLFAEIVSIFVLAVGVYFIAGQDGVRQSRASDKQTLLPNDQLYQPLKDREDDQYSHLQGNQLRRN
T3 sequence (P04234 22-171, chain 3 of 3, further chain): as the sequence (Q95LI8 22-171, chain 3 of 3, further chain) above, with V5I, K15N, V20I, T32S, N33D, N34I, A64T, N74S, L83V, R141H counted along it

Binder | Kd [1] | koff [1] | kon [1] | EC50 [2] | EC50 [3] | EC50 (nM), activation of Jurkat-TIGIT-luc cells with MC38/MSLN tumor cells [4] | EC50 (nM), activation of T cell activation signaling pathway, Jurkat-TIGIT-luc cells without tumor cells [4]
B1 | 1300 pM | 0.00085 s⁻¹ | 650000 M⁻¹ s⁻¹ | 272 pM | 304 pM |  | 
B2 | 650 pM | 0.0018 s⁻¹ | 2.7e+06 M⁻¹ s⁻¹ | 198 pM | 1290 pM |  | 
B3 | 3700 pM | 0.0038 s⁻¹ | 1e+06 M⁻¹ s⁻¹ | 75.6 pM | 56.6 pM |  | 
B4 | 23000 pM | 0.0064 s⁻¹ | 280000 M⁻¹ s⁻¹ | 1850 pM | 4460 pM | 0.026 nM | 0.88 nM
B5 | 7400 pM | 0.0035 s⁻¹ | 470000 M⁻¹ s⁻¹ | 324 pM | 2820 pM |  | 
B6 | 610 pM | 0.00068 s⁻¹ | 1.1e+06 M⁻¹ s⁻¹ | 273 pM | 736 pM |  | 
